# From publication PMC4336329 (PLoS ONE, 2015)
# About 14,000 (4.5%) of roughly 310,000 compounds showed an effect of 50% or more. The effect is printed as a negative number. The list shows a part of the results.
# Molecular target: human ether-à-go-go-related gene (hERG) potassium channel (human, UniProt Q12809)
# Assay: primary screen, population patch clamp on CHO cells stably expressing hERG
# 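Also: peak tail current of the secondary pulse compared with the same well before compound.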
# Sequence of human ether-à-go-go-related gene (hERG) potassium channel (Q12809 whole entry, looked up): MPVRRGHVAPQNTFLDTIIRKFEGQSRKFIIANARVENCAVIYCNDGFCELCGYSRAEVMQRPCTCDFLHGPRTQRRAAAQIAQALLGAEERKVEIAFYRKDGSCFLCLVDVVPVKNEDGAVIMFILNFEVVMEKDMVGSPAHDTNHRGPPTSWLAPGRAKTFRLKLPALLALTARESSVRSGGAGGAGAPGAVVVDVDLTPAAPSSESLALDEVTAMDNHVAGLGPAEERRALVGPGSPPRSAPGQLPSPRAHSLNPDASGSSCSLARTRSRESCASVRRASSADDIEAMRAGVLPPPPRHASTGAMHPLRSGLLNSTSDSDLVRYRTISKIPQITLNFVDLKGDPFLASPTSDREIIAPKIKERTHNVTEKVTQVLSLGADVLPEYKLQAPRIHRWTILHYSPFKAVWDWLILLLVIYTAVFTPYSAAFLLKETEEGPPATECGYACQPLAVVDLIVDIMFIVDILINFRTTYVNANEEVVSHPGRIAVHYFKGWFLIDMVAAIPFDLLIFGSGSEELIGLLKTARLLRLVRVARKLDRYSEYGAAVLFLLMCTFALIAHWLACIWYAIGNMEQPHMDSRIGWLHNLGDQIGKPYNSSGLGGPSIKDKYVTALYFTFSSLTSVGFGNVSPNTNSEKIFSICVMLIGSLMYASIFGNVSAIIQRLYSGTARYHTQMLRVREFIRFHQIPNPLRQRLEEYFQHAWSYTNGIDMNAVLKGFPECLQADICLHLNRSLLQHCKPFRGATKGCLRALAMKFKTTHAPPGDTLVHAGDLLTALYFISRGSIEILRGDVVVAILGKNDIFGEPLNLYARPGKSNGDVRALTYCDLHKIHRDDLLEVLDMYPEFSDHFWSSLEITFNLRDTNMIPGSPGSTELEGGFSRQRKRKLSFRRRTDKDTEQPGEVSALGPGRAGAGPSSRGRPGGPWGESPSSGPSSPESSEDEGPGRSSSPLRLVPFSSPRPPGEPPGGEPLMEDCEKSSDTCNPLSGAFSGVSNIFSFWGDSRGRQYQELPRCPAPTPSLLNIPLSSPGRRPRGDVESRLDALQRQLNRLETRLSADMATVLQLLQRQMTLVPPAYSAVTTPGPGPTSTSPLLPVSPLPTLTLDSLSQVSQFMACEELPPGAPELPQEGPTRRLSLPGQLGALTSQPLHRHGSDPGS
row,Compound,"hERG current change (%, negative = inhibition) at 10uM [%]"
1,CCc1ccc(OCC(=O)NNC(=O)Cc2cccs2)cc1,4.69
2,CC(C)OC(=O)C1C2C=CC3(CN(CC4CCCO4)C(=O)C13)O2 (centres unmarked),27.2
3,CNC(=O)NC(=O)C(C)OC(=O)CCCc1nc2ccccc2s1 (centres unmarked),4.95
4,O=C(Nc1ccccn1)NC1CCCCC1,7.08
5,CC(NC(=O)c1cc2sccc2n1C)c1ccc2c(c1)OCCO2 (centres unmarked),-18.1
6,CC(C)n1cnc2cc(NCc3ccccn3)ccc21,-2.75
7,COc1ccc2[nH]c(C(=O)N3CCc4ccccc4C3)c(C)c2c1,5.11
8,O=C(CC1Nc2ccccc2NC1=O)Nc1ccccc1 (centres unmarked),-0.0811
9,COc1cc([N+](=O)[O-])cc2cc(C(=O)NC(C)(C)C)c(=O)oc12,-19.7
10,CCN1C(=O)/C(=C\N2CCN(c3ccc(F)cc3)CC2)SC1=S,15.5
11,O=C(NCc1cccnc1)NC1(C(F)(F)F)Oc2ccc(Cl)cc2O1 (centres unmarked),-1.22
12,Cc1occc1C(=O)NNC(=O)Nc1ccc(F)cc1F,25.4
13,N/C(Cc1cccs1)=N\OC(=O)COc1ccc(Br)cc1,-3.54
14,CN(CC1COc2ccccc2O1)C(=O)c1ccc(Cl)c(S(=O)(=O)N2CCCCCC2)c1 (centres unmarked),-25.8
15,Cc1ccc2c(c1)c1c(n2CC(O)Cn2c(C)nc3ccccc32)CCCC1 (centres unmarked),-1.67
16,Cc1ccc2[nH]c3c(c2c1)CCc1cn[nH]c1-3,16.7
17,Cc1ccc(NC(=O)COC(=O)CCOc2ccccc2C)cc1,15.8
18,O=C(Cn1c(C(=O)N2CCN(C3CCCCC3)CC2)cc2sccc21)c1ccccc1,-70.7
19,O=C(/C=C/c1ccccc1)NC(NC(=S)Nc1cccc(O)c1)C(Cl)(Cl)Cl (centres unmarked),5.34
20,Cn1c(=O)n(C)c2cc(NC(=O)COc3ccc(F)cc3)ccc21,-41.8

row,Compound,"hERG current change (%, negative = inhibition) at 10uM [%]"
1,CCC(C)(C)C(=O)Nc1ncc(S(=O)(=O)c2ccc([N+](=O)[O-])cc2)s1,-25.1
2,Cc1cccc(OCc2nnc(SC(C)C(=O)O)n2-c2ccccc2)c1 (centres unmarked),4.08
3,COc1ccc(CCNC(=O)COC(=O)C2CC2)cc1,0.505
4,CCOC(=O)C(CC)n1cnc2c(oc3ccccc32)c1=O (centres unmarked),11.7
5,CCOC(=O)[C@@H]1[C@H]2COc3ccccc3[C@H]2N2C(=O)N(c3ccc(C)cc3)C(=O)[C@]12C,-1.42
6,O=C(/C=C/c1ccc(Br)o1)OCc1ccccc1,2.18
7,CN(Cc1ccccc1Cl)C(=O)C1CCC(=O)N(CCc2cccc(F)c2)C1 (centres unmarked),-52.5
8,CCCCOc1nc2ccccc2c(=O)n1-c1ccccc1,-11.6
9,COc1ccc(NC(=S)NC(=O)c2ccc(Br)o2)cc1,15.1
10,CCOC(=O)C(=NC1CCS(=O)(=O)C1)NNc1ccccc1Cl (centres unmarked),-2.17
11,CC(=O)N[C@H]1[C@H](OC2CCCCC2)O[C@H](COC(C)=O)[C@@H](OC(C)=O)[C@@H]1OC(C)=O,14.1
12,O=C1[C@@H]2Cc3c([nH]c4ccccc34)C(c3ccc(Cl)cc3)N2C(=O)CN1CCO (some centres unmarked),4.72
13,Cc1cc(NC(=O)CCC(=O)N(CC(=O)NCC2CCCO2)c2ccc(Cl)c(Cl)c2)no1 (centres unmarked),11.3
14,Cc1nc2c(C)cccn2c(=O)c1NC(=O)c1ccc(Br)o1,5.14
15,C=CCn1c(-c2csc3c2CCC(C)C3)n[nH]c1=S (centres unmarked),12.6
16,O=C(N/N=C/c1ccncc1)c1cc2ccccc2o1,-6.88
17,Cc1cccc(N2C(=O)CC(n3ccnc3)C2=O)c1C (centres unmarked),18.4
18,COCCCNC(=O)c1ccccc1NS(=O)(=O)c1ccc(C)cc1,5.58
19,COc1ccccc1N1CCN(C(=O)CCc2nnc3ccc(N4CCCC4)nn23)CC1,-34.1
20,COC(=O)c1ccc(Cc2ccc(C(=O)OC)o2)o1,10.6

row,Compound,"hERG current change (%, negative = inhibition) at 10uM [%]"
1,O=c1sc(N2CCN(c3ccccc3F)CC2)nc2ccsc12,2.11
2,CSc1nnc(Nc2ccccc2C)s1,12.8
3,CCCC(C)C(=O)Nc1cc(S(=O)(=O)N2CCCCC2)ccc1N1CCOCC1 (centres unmarked),-27.9
4,O=C(NCc1cccs1)c1nc(-c2cccs2)no1,0.862
5,CC1(C)C(C=C(Cl)Cl)C1C(=O)N(Cc1ccccc1Cl)C1CCS(=O)(=O)C1 (centres unmarked),0.294
6,CCOc1ccc(CN2CCN(C3CCSCC3)CC2CCO)cc1 (centres unmarked),-74.3
7,CCOc1ncccc1C(=O)OCC(=O)Nc1ccc(C)c(S(=O)(=O)N(C)C)c1,4.9
8,O=C(O)CCNC1C=CS(=O)(=O)C1 (centres unmarked),16.9
9,O=[N+]([O-])c1cc(CN2CCN(c3ccccc3)CC2)c(O)c2ncccc12,-7.8
10,COc1ccccc1/C=N/OCC(=O)NCc1ccc2c(c1)OCO2,-8.58
11,CCn1c(C)c(C)c2cc(C(=O)N3CCCC3)ccc21,-14.8
12,COc1ccc(C(=O)OC(C)C(=O)NCC2CCCCC2)cc1S(=O)(=O)N1CCOCC1 (centres unmarked),-23.9
13,CN(C(=O)CSc1nc(O)cc(=O)n1C1CCCC1)c1ccccc1,-47
14,CN(Cc1cc(=O)[nH]c2ccccc12)C(=O)c1ccccc1,0.394
15,O=C(c1ccc(Cn2cc(Br)cn2)o1)n1cccn1,3.57
16,CSCCC(NC(=O)C1CCC(C)CC1)C(=O)OCC(=O)c1ccc(Cl)cc1 (centres unmarked),10.5
17,CCc1ccc(C2N3CC4([N+](=O)[O-])CN2CC([N+](=O)[O-])(C3)C4(C)C)cc1 (centres unmarked),3
18,c1ccc(C2=Nn3c(nnc3-c3cccnc3)SC2)cc1,-25.4
19,O=C(COC(=O)c1cccc(F)c1)Nc1ccc2c(c1)OCCO2,5.53
